Source: PubChem BioAssay AID504332 (National Center for Advancing Translational Sciences (NCATS), 2011)
Several values for one entry are separate records, joined by “and”; a condition that tells them apart may be missing. Equal values may be shown once. Hit rate of the full screen: of about 350,000 compounds, about 31,000 (8.9%) were called active. This list was built around the results that the source calls inconclusive (neither active nor inactive); the mix of calls is not that of the screen. Calls come from the whole dose curve; as a rule, active = well fitted inhibition curve with a large enough effect; inconclusive = small, poorly fitted or top-dose-only effect; inactive = no such curve, though single readings can be large or run the other way. A potency beside an inconclusive call is a rough fit, not a confirmed value.

The compounds below were run against Histone-lysine N-methyltransferase EHMT2 (Homo sapiens) (UniProt Q96KQ7) (assay: qHTS Assay for Inhibitors of Histone Lysine Methyltransferase G9a). Conditions: G9a H3K9 monomethylation, AlphaScreen, 2 h; activity, negative = inhibition: at 59 µM (top of the series) unless noted.
Sequence of UniProt Q96KQ7 (Q96KQ7 whole entry, looked up): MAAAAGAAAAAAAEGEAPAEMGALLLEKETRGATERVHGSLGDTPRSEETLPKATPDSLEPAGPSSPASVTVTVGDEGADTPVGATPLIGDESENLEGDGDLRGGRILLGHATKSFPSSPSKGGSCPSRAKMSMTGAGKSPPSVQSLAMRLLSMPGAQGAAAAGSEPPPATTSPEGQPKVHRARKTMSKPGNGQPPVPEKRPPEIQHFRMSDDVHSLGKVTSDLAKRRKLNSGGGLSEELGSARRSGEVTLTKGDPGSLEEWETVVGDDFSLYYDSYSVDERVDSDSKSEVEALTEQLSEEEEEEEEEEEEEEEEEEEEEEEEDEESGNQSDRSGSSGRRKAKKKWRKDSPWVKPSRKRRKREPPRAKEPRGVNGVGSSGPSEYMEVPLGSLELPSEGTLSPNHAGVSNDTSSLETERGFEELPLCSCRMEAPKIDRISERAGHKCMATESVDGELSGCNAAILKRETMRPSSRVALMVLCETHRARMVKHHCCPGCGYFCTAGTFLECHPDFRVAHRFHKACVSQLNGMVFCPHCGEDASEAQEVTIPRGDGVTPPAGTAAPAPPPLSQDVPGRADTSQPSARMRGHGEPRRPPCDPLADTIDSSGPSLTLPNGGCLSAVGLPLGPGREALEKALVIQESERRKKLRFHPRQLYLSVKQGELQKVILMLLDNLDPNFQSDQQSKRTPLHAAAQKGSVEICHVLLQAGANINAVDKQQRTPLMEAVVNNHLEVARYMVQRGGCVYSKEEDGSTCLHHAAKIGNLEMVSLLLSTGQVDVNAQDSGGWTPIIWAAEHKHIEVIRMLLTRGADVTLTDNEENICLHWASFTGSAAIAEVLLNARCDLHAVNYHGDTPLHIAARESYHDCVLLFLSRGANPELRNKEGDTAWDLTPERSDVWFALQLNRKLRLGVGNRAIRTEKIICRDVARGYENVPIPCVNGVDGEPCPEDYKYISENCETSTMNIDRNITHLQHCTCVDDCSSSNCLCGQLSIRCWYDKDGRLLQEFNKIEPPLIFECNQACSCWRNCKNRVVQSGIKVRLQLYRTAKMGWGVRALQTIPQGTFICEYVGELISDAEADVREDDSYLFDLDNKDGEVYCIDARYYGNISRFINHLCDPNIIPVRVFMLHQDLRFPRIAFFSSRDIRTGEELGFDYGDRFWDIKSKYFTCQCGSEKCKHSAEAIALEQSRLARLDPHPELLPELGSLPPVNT
In short: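 Chemiluminescent proximity detection of H3K9 monomethylation, read after 10 min bead incubation in the dark. Reaction: 20 nM G9a, 500 nM biotin-H3K9 peptide, 20 uM SAM cofactor, 2 h, room temperature, following 15 min enzyme-compound preincubation.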
% is set by controls: 0 for no effect and ±100 for the full control effect; potency is the fitted concentration of half-maximal effect; tags give direction and shape of the fitted curve.
Note: nearly all actives have a fitted effect of over 75% in size.

SMILES | Potency | activity, negative = inhibition
Cc1cc(C)nc(S/C=C/C(=O)c2ccccc2)n1 | active: 22.4 µM | 
Cc1ccc(C2=NN(C)c3nc4ccccc4n3C2)cc1 | inconclusive: 79.4 µM [inhibitor, single point] | 
Cc1ccccc1C(=O)N1CCN(c2ccc([N+](=O)[O-])c(NCc3cccnc3)c2)CC1 |  | inactive: -12.5% [at 102 µM]
CCCSC1C(C)=C(C)C(=O)N1Cc1ccccc1 (centres undefined) | inconclusive: 89.1 µM [inhibitor, single point] | 
CC(=O)c1sc(NC(=O)C2CSC3(C)CCC(=O)N23)nc1-c1ccccc1 (centres undefined) | inconclusive: 89.1 µM [inhibitor, single point] | 
CN(C(=O)Nc1cn(C)c(=O)c2ccccc12)c1ccccc1 | inconclusive: 39.8 µM [inhibitor, single point] | 
COc1ccc(OC)c(-c2cc(C3CCN(c4cc(Cl)nc(N)n4)CC3)[nH]n2)c1 | inconclusive: 70.8 µM [inhibitor, partial curve, poor fit] | 
CCCCNc1cc(NC2CCCCC2)c2c3c(onc13)-c1ccccc1C2=O | active: 2 µM | 
CC1(C)C(=O)OC(c2cccn2-c2cccc([N+](=O)[O-])c2)C2(CCCCC2)C1=O (centres undefined) | inconclusive: 20 µM [inhibitor, single point] | 
CCCN1C(=O)CN(C2CCCCCC2)C(=O)C1c1ccc(OCC)c(OC)c1 (centres undefined) |  | inactive: 7.16%
COc1ccccc1CCNC(=O)c1cc2ccccn2n1 | inconclusive: 0.282 µM [inhibitor, partial curve, poor fit] | 
CCCN1CCN(CC(O)COC(c2ccc(OC)cc2)c2ccc(OC)cc2)CC1 (centres undefined) | active: 2.82 µM | 
Cc1onc(-c2ccccc2)c1C(=O)Nc1nnc(CC(C)C)s1 |  | inactive: -1.83% [at 102 µM]
CC(C)NC(=O)c1onc(CSc2ccc(F)c(F)c2)c1C(=O)O |  | inactive: 50.9% [at 0.501 µM]
COc1ccccc1NC(=O)c1cc(C(=O)O)ccc1C(=O)O | inconclusive: 89.1 µM [inhibitor, single point] | 
O=[N+]([O-])c1ccc(O)c2ncccc12 | inconclusive: 39.8 µM [inhibitor, single point] and inconclusive: 1 µM [inhibitor, full curve, poor fit] | 
Cc1cccc(NC(=O)C(c2cccc([N+](=O)[O-])c2)N2CCCCC2)c1 (centres undefined) | inconclusive: 10 µM [inhibitor, partial curve, poor fit] | 
CCC(C)[C@@H](N)C(=O)N/N=C/c1ccc2ncccc2c1 (some centres undefined) | inconclusive: 35.5 µM [inhibitor, single point] | 
CC1(C)OC(=O)C(=CNC(=O)c2c(F)cccc2F)C(=O)O1 | inconclusive: 89.1 µM [inhibitor, partial curve, poor fit] | 
Cc1ccc(NC(=S)N(CCCN2CCCC2)Cc2cccn2Cc2ccc(Cl)cc2)cc1 | active: 50.1 µM | 
CC(C)(C)c1ccc(-c2noc(CCC(=O)NCc3ccco3)n2)cc1 | inconclusive: 89.1 µM [inhibitor, single point] | 
CC(C)(C)C#CC(CCc1ccccc1)OS(N)(=O)=O (centres undefined) | inconclusive: 89.1 µM [inhibitor, single point] | 

SMILES | Potency | activity, negative = inhibition
CCn1cc2nc(SCc3cccc(OC)c3)n(Cc3ccc(Cl)cc3)c(=O)c2n1 |  | inactive: -40.6%
O=C(NCCc1nnc2ccc(NCc3ccccc3Cl)nn12)c1ccccc1 | inconclusive: 89.1 µM [inhibitor, partial curve, poor fit] | 
CCOc1ccc(Br)cc1S(=O)(=O)N1CCCN(C)CC1 | active: 50.1 µM | 
COc1cc2nc(CN(C)Cc3ccc(C(C)(C)C)cc3)[nH]c(=O)c2cc1OC |  | inactive: 0.108% [at 102 µM]
Cc1ccc(-n2cccc2/C=N/n2cnnc2)cc1Cl | inconclusive: 35.5 µM [inhibitor, single point] | 
Cc1cc(C)nc(SCC(=O)Nc2ccc(N3CCOCC3)c(Cl)c2)n1 | inconclusive: 25.1 µM [inhibitor, single point] | 
O=C(O)CSc1nnc(Nc2ccccc2)n1-c1ccccc1 | inconclusive: 56.2 µM [inhibitor, single point] | 
O=C(C1CCN(CC2CC=CCC2)CC1)N(CCc1ccccc1)Cc1ccccc1 (centres undefined) | active: 44.7 µM | 
O=C(c1cn(CC2CCCCC2)nn1)N1CCN(c2ccc(F)cc2)CC1 | inconclusive: 56.2 µM [inhibitor, partial curve] | 
COc1ccc([C@H]2C=C(C(=O)O)O[C@@H](OCc3ccc(CO)cc3)C2)cc1 |  | inconclusive: -96.6% [inhibitor]
Cc1ccc(C(=O)/C=C/c2c(C)nn(-c3ccccc3)c2Cl)cc1 |  | inactive: -24.2%
Cc1cccc(NC(=S)Nc2ccc3cn[nH]c3c2)c1 | inconclusive: 89.1 µM [inhibitor, single point] | 
Cc1cccc(NC(=O)c2cc([N+](=O)[O-])ccc2NC2CCCCC2)c1 | inconclusive: 0.631 µM [inhibitor, partial curve, poor fit] | 
CCN(Cc1ccccc1)C(=O)C1CCN(CC2CC=CCC2)CC1 (centres undefined) | active: 7.94 µM | 
COC(=O)Nc1nc2ccc(-c3n[nH]c(=O)c4ccccc34)cc2[nH]1 | active: 50.1 µM | 
COc1cc2c(cc1OC)CN(C(=O)CN1C(=O)c3ccc([N+](=O)[O-])cc3C1=O)CC2 | inconclusive: 89.1 µM [inhibitor, partial curve, poor fit] | 
COc1cccc(NS(=O)(=O)c2ccc3[nH]cc(C(=O)NC4CCCCC4)c(=O)c3c2)c1 |  | inactive: -42%
CC(=O)Nc1ccc(S(=O)(=O)N2CCN(Cc3cccs3)CC2)cc1 | active: 17.8 µM | 
Cc1cc(-c2nn(-c3ccccc3F)cc2CN2CCN(c3ccccn3)CC2)c(C)s1 | inconclusive: 8.91 µM [inhibitor, partial curve, poor fit] | 
C/C(=N\NC(=O)c1ccc(N/N=C(\C)c2ccncc2)cc1)c1ccncc1 | inconclusive: 79.4 µM [inhibitor, single point] | 
O=S(=O)(NCc1ccccc1)c1ccc2[nH]c3c(c2c1)CCCCC3 | active: 14.1 µM | 
O=C(CSc1nc(O)c(C2CCCCC2)c(=O)[nH]1)NCC1CCCO1 (centres undefined) | inconclusive: 39.8 µM [inhibitor, single point] | 
